Screen size: about 190,000 compounds; about 270 (0.14%) were called active. This list was built around the results that the source calls inconclusive (neither active nor inactive); the mix of calls is not that of the screen.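 Rule for the calls: active = GTP binding activity at least 20% away from the 100% baseline, either lowered as inhibitor or raised as activator; inconclusive = flagged as likely green fluorescent, judged across all proteins in the well; inactive = the rest.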
The compounds below were run against GTPase HRas (Homo sapiens) (UniProt P01112) (assay: HRas wt fluorescent GTP binding changes, either direction – biochemical, wildtype, bead-based flow cytometry, multiplex, primary screen (AID 759;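 note: 0% = unlabeled GTP competition control and 100% = no-compound control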)). Conditions: GST-Ras wt beads, Bodipy-FL-GTP binding, at 10 µM, actives lie on both sides.
UniProt P01112, sequence (P01112 whole entry, looked up): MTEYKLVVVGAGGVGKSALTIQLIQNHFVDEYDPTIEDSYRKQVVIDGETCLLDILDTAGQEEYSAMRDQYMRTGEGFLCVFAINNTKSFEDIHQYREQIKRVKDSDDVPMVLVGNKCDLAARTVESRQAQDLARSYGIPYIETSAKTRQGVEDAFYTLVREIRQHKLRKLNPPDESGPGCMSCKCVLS

Row | Structure (SMILES) | GTP binding activity
1 | CCOc1ccccc1NC(=O)CSc1ccc2nnc(-c3cccnc3)n2n1 | active: 69%
2 | C/C(=N\NC(=O)c1cccnc1)c1cc2ccccc2o1 | inconclusive: 96%
3 | Cc1cccc(NC(=O)CN(C)S(=O)(=O)c2ccccc2)n1 | inconclusive: 106%
4 | Nc1ccc(C(=O)N/N=C\c2cc(N=Nc3cccc4ccccc34)ccc2O)cc1 | inconclusive: 86%
5 | O=C(NCCO)c1ccc2nc(-c3ccco3)c(-c3ccco3)nc2c1 | inconclusive: 91%
6 | COc1cccc(CN2CCN(Cc3cc(OC)c(OC)cc3[N+](=O)[O-])CC2)c1 | inconclusive: 97%
7 | CSc1ccccc1NC(=O)NCCCl | inactive: 99%
8 | O=C(C1CCN(S(=O)(=O)c2cccs2)CC1)N(c1ccccn1)C1CCCCC1 | inactive: 96%
9 | Cc1c(NC(=O)/C(C#N)=C/c2ccc(-c3cccc(Cl)c3)o2)c(=O)n(-c2ccccc2)n1C | inconclusive: 90%
10 | Cc1ccc(SCc2ccc(C(=O)Nc3ccccc3Br)cc2)cc1 | inconclusive: 94%
11 | CC(=O)N1CCN(CC(=O)Nc2sccc2C#N)CC1 | inconclusive: 93%
12 | Cc1ccccc1Sc1c(C#N)c(-c2ccccc2)nn1C | inactive: 101%
13 | O=C(CSc1nnc(-c2ccc(F)cc2)o1)NC1CCCCC1 | inconclusive: 113%
14 | CC(C)Cn1c(N)c(-c2nc(C(C)C)c(C(=O)c3ccccc3F)s2)c(=O)n(C)c1=O | inactive: 95%
15 | O=C1c2cccc3cccc(c23)C(=O)N1CCN1CCN(C(=S)Nc2ccccc2)CC1 | inconclusive: 96%
16 | COc1cccc(CNC(=O)C2CCN(S(=O)(=O)c3cccs3)CC2)c1 | inconclusive: 94%
17 | CC(=O)N[C@@H](Cc1c[nH]c2ccccc12)C(=O)OCC(=O)Nc1ccc(Cl)c(S(=O)(=O)N(C)C)c1 | inconclusive: 97%
18 | Cc1nnc(SCC(=O)NCc2ccco2)n1-c1ccccc1 | inconclusive: 103%
19 | COc1ccc(/C=C/C(=O)Nc2ccc3nc4n(c(=O)c3c2)CCCC4)cc1OC | inconclusive: 87%
20 | COCCNC(=O)CN(c1ccc(OC)c(OC)c1)S(=O)(=O)c1ccc(C)cc1 | inconclusive: 102%
21 | Cc1ccc2nc(Cl)c(/C=N/Nc3nc(C)cc(C)n3)c(=O)n2c1 | inactive: 95%
22 | O=S(=O)(c1ccc(F)cc1)n1ccc(-c2cccc(OCc3ccc(Cl)cc3Cl)c2)n1 | inconclusive: 105%
23 | CC(=O)Nc1ccc(Nc2ccc3c4c(cc(=O)n3C)-c3ccccc3C(=O)c24)cc1 | inactive: 86%
24 | CC(=O)OC1C(N2CCCCC2)c2c(ccc(/C=C/C(=O)N3CCCCC3)c2O)OC1(C)C (centres undefined) | inactive: 94%

— PubChem BioAssay AID759 (NMMLSC, 2007)
